These are yes or no findings as the source states them, for the method shown. In cells and extracts the contact can be indirect. Some binding calls cover weakened binding; strength is not graded here. Tags and fused reporters may be left off the sequences shown.
T1: HA-HD-PTP_(Bro1-CC) L202D, expressed in cells (human) (UniProt Q9H3S7)
T1 sequence: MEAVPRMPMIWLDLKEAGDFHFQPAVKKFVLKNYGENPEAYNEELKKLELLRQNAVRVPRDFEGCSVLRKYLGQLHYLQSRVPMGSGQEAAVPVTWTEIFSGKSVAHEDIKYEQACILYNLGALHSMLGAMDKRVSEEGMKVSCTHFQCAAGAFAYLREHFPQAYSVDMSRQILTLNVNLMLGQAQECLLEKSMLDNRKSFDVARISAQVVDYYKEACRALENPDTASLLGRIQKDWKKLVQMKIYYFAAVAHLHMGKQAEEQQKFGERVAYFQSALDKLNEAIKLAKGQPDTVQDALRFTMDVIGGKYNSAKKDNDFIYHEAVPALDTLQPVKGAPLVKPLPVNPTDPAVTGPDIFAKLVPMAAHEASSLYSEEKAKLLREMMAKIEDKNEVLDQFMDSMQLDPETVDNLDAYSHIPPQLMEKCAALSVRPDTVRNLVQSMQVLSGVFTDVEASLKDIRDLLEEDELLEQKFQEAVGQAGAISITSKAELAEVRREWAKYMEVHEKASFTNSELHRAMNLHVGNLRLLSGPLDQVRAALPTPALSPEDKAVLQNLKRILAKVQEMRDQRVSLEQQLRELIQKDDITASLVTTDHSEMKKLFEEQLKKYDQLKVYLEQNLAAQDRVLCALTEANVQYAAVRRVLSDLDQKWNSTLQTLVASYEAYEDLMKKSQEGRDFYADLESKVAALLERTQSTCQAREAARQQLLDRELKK

T2: HA-HD-PTP_(Bro1-CC) T145K, expressed in cells (human) (UniProt Q9H3S7)
T2 sequence: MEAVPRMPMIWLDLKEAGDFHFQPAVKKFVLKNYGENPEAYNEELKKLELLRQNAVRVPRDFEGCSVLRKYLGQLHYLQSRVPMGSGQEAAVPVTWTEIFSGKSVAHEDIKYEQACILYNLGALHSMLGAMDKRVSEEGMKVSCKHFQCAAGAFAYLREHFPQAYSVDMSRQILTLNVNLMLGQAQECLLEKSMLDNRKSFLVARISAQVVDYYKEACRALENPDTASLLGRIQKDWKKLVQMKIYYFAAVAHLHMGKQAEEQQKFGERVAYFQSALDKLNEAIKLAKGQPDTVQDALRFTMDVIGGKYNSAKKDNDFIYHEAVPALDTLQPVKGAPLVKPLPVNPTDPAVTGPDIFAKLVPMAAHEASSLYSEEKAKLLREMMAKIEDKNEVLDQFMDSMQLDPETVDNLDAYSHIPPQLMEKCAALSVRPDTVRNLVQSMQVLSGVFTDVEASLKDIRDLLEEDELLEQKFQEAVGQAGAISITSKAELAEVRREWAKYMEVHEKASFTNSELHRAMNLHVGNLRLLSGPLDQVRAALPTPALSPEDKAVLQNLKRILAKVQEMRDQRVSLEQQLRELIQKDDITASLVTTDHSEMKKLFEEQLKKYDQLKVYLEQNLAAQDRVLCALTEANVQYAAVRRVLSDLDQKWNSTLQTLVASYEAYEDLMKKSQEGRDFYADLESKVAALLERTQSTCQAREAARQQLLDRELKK

T3: His6HD-PTP_(Bro1-CC) L202D, in vitro co-translated (human) (UniProt Q9H3S7)
T3 sequence: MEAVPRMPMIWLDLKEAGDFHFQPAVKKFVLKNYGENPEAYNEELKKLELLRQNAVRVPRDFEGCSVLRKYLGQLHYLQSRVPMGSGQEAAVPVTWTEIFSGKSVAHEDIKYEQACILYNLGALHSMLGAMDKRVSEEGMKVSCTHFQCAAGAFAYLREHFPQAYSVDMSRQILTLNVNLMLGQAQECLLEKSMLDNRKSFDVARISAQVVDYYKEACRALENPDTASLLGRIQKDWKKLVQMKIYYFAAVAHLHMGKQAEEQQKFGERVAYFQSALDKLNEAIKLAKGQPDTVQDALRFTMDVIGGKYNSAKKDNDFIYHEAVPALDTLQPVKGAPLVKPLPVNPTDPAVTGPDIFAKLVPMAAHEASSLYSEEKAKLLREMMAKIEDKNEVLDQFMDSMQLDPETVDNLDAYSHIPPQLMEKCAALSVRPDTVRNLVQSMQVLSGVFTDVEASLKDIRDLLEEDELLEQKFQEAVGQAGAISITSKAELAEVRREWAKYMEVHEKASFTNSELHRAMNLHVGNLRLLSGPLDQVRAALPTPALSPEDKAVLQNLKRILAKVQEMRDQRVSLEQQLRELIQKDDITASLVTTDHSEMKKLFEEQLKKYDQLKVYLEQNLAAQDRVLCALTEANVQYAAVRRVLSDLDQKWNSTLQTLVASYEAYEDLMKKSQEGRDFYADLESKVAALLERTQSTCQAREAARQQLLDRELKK

T4: His6HD-PTP_(Bro1-CC) R69L, in vitro co-translated (human) (UniProt Q9H3S7)
T4 sequence: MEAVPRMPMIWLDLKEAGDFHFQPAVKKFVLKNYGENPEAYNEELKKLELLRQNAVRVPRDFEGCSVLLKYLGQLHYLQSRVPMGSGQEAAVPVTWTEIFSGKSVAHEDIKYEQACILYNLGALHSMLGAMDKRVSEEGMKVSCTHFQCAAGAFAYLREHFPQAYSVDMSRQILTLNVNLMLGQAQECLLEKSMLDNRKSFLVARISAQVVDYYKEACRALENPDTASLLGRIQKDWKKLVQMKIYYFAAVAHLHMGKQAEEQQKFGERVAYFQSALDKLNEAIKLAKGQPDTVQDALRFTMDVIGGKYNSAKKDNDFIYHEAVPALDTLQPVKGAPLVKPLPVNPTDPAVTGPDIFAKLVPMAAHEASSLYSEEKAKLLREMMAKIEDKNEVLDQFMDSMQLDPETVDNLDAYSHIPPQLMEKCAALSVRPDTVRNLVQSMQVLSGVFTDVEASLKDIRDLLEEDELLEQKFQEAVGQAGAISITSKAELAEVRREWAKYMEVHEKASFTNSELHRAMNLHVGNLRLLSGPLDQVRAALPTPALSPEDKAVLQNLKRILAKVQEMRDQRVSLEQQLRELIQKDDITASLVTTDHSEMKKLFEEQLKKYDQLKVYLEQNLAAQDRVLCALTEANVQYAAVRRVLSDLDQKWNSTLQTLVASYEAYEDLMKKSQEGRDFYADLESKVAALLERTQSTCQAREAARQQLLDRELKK


Columns and labels:
[1] = biological target: T1, HA-HD-PTP_(Bro1-CC) L202D, expressed in cells (human); test: co-IP; HA-tagged HD-PTP constructs expressed in cells; lysates in IP1 buffer (25 mM Tris-HCl pH 7.5, 40 mM NaCl, 0.5% IGEPAL); anti-HA immunoprecipitates blotted for endogenous endofin or SARA
[2] = biological target: T2, HA-HD-PTP_(Bro1-CC) T145K, expressed in cells (human); test: as above
[3] = biological target: T3, His6HD-PTP_(Bro1-CC) L202D, in vitro co-translated (human); test: co-IP; endofin(1–84) and His6HD-PTP Bro1-CC (wild type and mutants) co-translated in vitro, then immunoprecipitated with anti-His (Figure S3)
[4] = biological target: T4, His6HD-PTP_(Bro1-CC) R69L, in vitro co-translated (human); test: as above

| binding [3] | binding [4] | Molecule | binding [1] | binding [2] |
| --- | --- | --- | --- | --- |
| – | – | endogenous endofin (from UniProt Q7Z3T8 1-1539) | no binding | no binding |
| no binding | binds | endofin_(1–84)-strep, in vitro translated (domain or fragment, UniProt Q7Z3T8 1-84, 35S-methionine) MDSYFKAAVSDLDKLLDDFEQNPDEQDYLQDVQNAYDSNHCSVSSELASSQRTSLLPKDQECVNSCASSETSYGTNESSLNEKT | – | – |
